The source of these data is the supplement of paper PMC10126150.

Values marked as one replicate rest on one cluster of the flow cell; about a third of the high ones do not repeat.

For the data set, the system named is ATP. Briefly: switch fluorescence ratio, 500 uM ATP over buffer (Cy3 cluster intensity, sum of 5 cycles each) (fold (ratio)); higher = stronger signal-on switching upon ATP binding; sequences stand for … in TCGTCGGCAGCGTCAGATGTGTATAAGAGACAGTTTTTTTTTTTTTTTTTTTTTTTTT…TC. The note with it: aptamer strand: ATP DNA aptamer (quencher-CACCTGGGGGAGTATTGCGGAGGAAGG + anchor), 100 nM annealed; ATP concentration: 500 uM; one replicate. The gist of the method:
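Values give the fluorescence ratio for each switch-domain sequence, averaged from per-cluster ratios of summed target-cycle to summed buffer-cycle Cy3 intensity. The Cy3-labelled switching-strand clusters sat on a modified Illumina MiSeq flow-cell, were annealed to 100 nM quencher-labelled ATP aptamer, and were imaged in selection buffer, then after 15 min with 500 uM ATP at 22 °C. Five cycles ran with NaOH stripping and re-annealing between them, and clusters outside 100-1000 RFU were excluded.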
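Note: ATP exposure 15 min at 22 °C before imaging.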

ACACCCTTT: the switch fluorescence ratio stood at 1.16. Under CAACAATGGT stands 1.2; under ATAGGGCGCT, 1.03. To TTCGGTGTAC belongs 1.01; to TGGCCGCTAG, 1.06.

In the case of AGTGGTCTGC, the switch fluorescence ratio stood at 1. In the case of ACATGCTGTG, the switch fluorescence ratio amounted to 1.02. Under ACCATTGGCC stands 0.991. To GGGGCGGTCG belongs 1.07; to TAACCACATC, 1.11; to TCCGTTTCCC, 1.14.

Turning to ATCTGGACGC, the switch fluorescence ratio was 1.02. Under CTCTGTTGAG stands 0.983; under CTGCATGTTC, 1.84.

For the sequence TAAATCGACG, the switch fluorescence ratio amounted to 1.04. Under AAATTCTCGT stands 1.03; under CTGATTGGTT, 0.972. To ATTTACGATT belongs 1.14. Take CGGAGTCACG: the switch fluorescence ratio was 1.04.

For TGCAGTTGAA, the switch fluorescence ratio stood at 1.13. To CTGCAACATT belongs 1.14. In the case of TCTCGACCT, the switch fluorescence ratio is 1.04. Take CTGGGGACAG: the switch fluorescence ratio was found to be 0.946. With GACTAACAGA, the switch fluorescence ratio worked out at 1.06.

Take TACAATATAA: the switch fluorescence ratio stood at 1.04. Under GTTGTGACGG stands 0.985; under TGGTGCCATT, 1.01; under AACCCGGGG, 1.03. Under ACGTGACGTC stands 1.02; under TCTTACATAA, 1.05; under CTGTGAAGGG, 0.962. To CTCTAGCTAT belongs 2.41. For ACAAGAAATG, the switch fluorescence ratio turned out to be 0.95. As to TATAGGGCA, the switch fluorescence ratio turned out to be 1.01. To GCCCGGGCG belongs 1.02; to ACACGCTTAA, 1.12. Under CGTCATTCT stands 1.02; under GTCCGAGCCT, 1.13. To GGCTGTATAT belongs 1.01; to GAAGTTTGTC, 1.03; to AAGTTCATTA, 1. Regarding GCTAGGATGT, the switch fluorescence ratio amounted to 1.03. To GTCTGGACTC belongs 0.949; to ACCCGGAGGG, 0.916. Consider CGAAATCCGT, for which the switch fluorescence ratio stood at 1.06. To ATCCTTAACG belongs 1.01. For the sequence CTGGTCTTCG, the switch fluorescence ratio was found to be 1.05.

For the sequence TCAAAACGC, the switch fluorescence ratio was found to be 1.24. Take GTTGACCAAG: the switch fluorescence ratio is 1.03. Under CCTCTATGGC stands 1.54; under TCCCTGTGTG, 1.74. To AGGGGCAAGG belongs 1.04; to TCGATTGTTG, 0.965. Regarding ATTTAAGGTT, the switch fluorescence ratio was 0.982. Regarding CCGTTTTGGA, the switch fluorescence ratio was found to be 0.963.

As for TGCCGTTGTG, the switch fluorescence ratio stood at 1.01. As for GTCCAACAAT, the switch fluorescence ratio amounted to 1. To AAGGCTGACA belongs 0.969. To CACGTTTTCT belongs 0.987; to GACACTCTTT, 0.966. To CAGAGAAGGG belongs 1; to CCTTTGCCGT, 1.03; to TTTTGTGTCC, 0.966. With GTGGGAACTA, the switch fluorescence ratio was 0.986.

Consider GGGTCAGAGC, for which the switch fluorescence ratio came to 1.04. To TGATTTCCGG belongs 0.975; to TGTGCGAAGA, 1. Under TTTTCCTTGA stands 0.993; under GGTTCGGCCC, 1.01. In the case of CCATCCCGCG, the switch fluorescence ratio worked out at 2.34. To CGTTTGCTGA belongs 0.973; to ATGAAATGTC, 1.48.

As for TACTCAGGCG, the switch fluorescence ratio is 1.1. To AAGATCGCCC belongs 1.01; to ACTATGGCTC, 0.978; to AATGATGGTT, 1.02. As to TCGCTAAATA, the switch fluorescence ratio is 1.27. Under TAGCCGTTAA stands 0.971; under TCCCTAAAAT, 0.988; under AGCTCTATGG, 0.986. Under GTAGTCGTGG stands 1. As to CGAGTACTGC, the switch fluorescence ratio was determined as 1.02. On to TGGTTAACGA, for which the switch fluorescence ratio is 1.01. With TTGCTGGGTA, the switch fluorescence ratio turned out to be 0.946.

For GAACAGATTG, the switch fluorescence ratio was 0.988. Under GTGTATCTGG stands 0.937. To ACCCACTTGG belongs 1.21; to GCTGCTGCAG, 0.966; to TCGAACAATT, 1.04. Under TTGAGACGAG stands 0.978. For GCGTTGCGGA, the switch fluorescence ratio was found to be 0.956. Under AGTACTCAAA stands 1.02; under TCTTTAAAT, 1.08; under CAGCTAGGTA, 0.975.

As for GCAGAGAGAT, the switch fluorescence ratio was found to be 0.987.

As to AGTTGCATCC, the switch fluorescence ratio was determined as 1.01. To AATCACGTAC belongs 1.75; to TCGAGGATAT, 1.27; to CTGCTCATCG, 0.999. As to TCCGGAGGGC, the switch fluorescence ratio came to 1.03. Turning to AGAATTCGA, the switch fluorescence ratio amounted to 0.931.

Turning to TCTTAGTGCA, the switch fluorescence ratio is 1.01. To GCAGTAGGTC belongs 1.01. Take TTTGCTCAAT: the switch fluorescence ratio is 1.03. To AACACTTGCT belongs 1.05. To AACGGAAAAC belongs 1.11; to TAAGGTTAGT, 1.01.

Turning to CTAATCGAGT, the switch fluorescence ratio came to 0.956. Under AATCCGTTGT stands 1.02; under TGTCCACGGT, 1.04. On to TTAGCGCCTA, for which the switch fluorescence ratio stood at 0.986. As for GTTATGGGCT, the switch fluorescence ratio turned out to be 1.03. Under TCGCCGTTAG stands 0.929; under GGTTCTAAAA, 0.959; under AGTGAGTGAC, 0.956. On to GGTGACGACT, for which the switch fluorescence ratio was 1.09. Turning to AGCTTCTTCT, the switch fluorescence ratio is 1.05. Under ATAATTTTGC stands 0.995; under CACGCTTTTG, 1.01. Regarding GTTATAATGT, the switch fluorescence ratio amounted to 0.99.
